In PubChem BioAssay AID504339 (National Center for Advancing Translational Sciences (NCATS), 2011):
Hit rate of the full screen: of about 390,000 compounds, about 17,000 (4.4%) were called active. Inconclusive means that the source gave no clear call. Such entries were picked first, then a sample of the others. The call rests on the fitted dose curve; in most records, active means well fitted inhibition curve with a large enough effect; inconclusive means small, poorly fitted or top-dose-only effect; inactive means no such curve, though single readings can be large or run the other way. Potencies of inconclusive entries are doubtful fits and often do not repeat.

What follows are compounds tested against Lysine-specific demethylase 4A (Homo sapiens) (UniProt O75164) (assay: qHTS Assay for Inhibitors of JMJD2A-Tudor Domain). Settings: AlphaScreen JMJD2A-Tudor / H3K4me3 peptide binding; activity change, negative = inhibition: at 114 µM (top of the series).
Sequence of UniProt O75164 (O75164 whole entry, looked up, the tested form may be a part): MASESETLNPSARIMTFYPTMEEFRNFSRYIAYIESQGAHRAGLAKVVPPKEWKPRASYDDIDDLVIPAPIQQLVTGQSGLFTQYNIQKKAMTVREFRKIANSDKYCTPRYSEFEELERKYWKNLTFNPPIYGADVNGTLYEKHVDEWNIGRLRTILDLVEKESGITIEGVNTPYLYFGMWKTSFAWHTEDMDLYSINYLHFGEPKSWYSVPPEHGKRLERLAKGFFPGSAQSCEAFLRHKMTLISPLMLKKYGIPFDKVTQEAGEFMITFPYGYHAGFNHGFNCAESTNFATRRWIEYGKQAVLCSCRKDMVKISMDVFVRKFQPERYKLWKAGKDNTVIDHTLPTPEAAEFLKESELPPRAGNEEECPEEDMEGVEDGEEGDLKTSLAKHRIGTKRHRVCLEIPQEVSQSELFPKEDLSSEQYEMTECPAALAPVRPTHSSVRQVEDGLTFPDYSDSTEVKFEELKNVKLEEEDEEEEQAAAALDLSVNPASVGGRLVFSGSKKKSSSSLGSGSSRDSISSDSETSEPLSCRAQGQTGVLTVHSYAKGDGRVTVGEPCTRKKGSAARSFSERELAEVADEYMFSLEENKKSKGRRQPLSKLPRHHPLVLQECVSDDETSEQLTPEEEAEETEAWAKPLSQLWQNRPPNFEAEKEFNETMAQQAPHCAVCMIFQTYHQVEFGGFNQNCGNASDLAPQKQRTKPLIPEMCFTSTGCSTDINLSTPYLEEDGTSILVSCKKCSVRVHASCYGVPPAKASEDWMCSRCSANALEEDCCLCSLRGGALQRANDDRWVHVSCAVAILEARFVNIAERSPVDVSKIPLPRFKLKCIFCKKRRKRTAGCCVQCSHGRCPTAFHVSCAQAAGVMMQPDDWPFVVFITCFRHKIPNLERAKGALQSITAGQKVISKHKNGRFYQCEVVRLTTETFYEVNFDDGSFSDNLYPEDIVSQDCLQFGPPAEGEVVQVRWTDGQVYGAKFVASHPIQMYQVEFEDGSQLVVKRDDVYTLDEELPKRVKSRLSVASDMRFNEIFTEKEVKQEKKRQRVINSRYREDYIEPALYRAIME
Further: nearly all actives have a fitted effect of over 50% in size.
On the % scale 0 is the no-effect control and ±100 the full control effect; potency means the concentration at half of the fitted maximal effect; tags describe the fitted curve by direction and shape.

| SMILES | activity change, negative = inhibition | Potency |
| --- | --- | --- |
| COc1ccc(/C=C2\C(=O)ON=C2c2ccccc2)cc1OC | inactive: -11.3% |  |
| C[N+]1(CC2COC3(CCCCC3)O2)CCCC1 (centres undefined) |  | inconclusive: 39.8 µM [inhibitor, single point] |
| CCC(=O)Nc1ccc(C2C(=O)c3ccccc3C2=O)cc1 |  | inconclusive: 31.6 µM [inhibitor, full curve] |
| O=C1c2ccccc2C(=O)N1c1nc(-c2cccs2)cs1 | inactive: -33.8% |  |
| COc1ccc(C)cc1NC(=O)CSc1nc(=O)n(Cc2cccnc2)c2c1CCC2 |  | inconclusive: 89.1 µM [inhibitor, single point] |
| O=C(C1CCCN(S(=O)(=O)c2cccc3nonc23)C1)N1CCN(c2ccccc2F)CC1 (centres undefined) |  | inconclusive: 56.2 µM [inhibitor, partial curve] |
| Cc1ccc(CCNC(=O)c2sc3nc4n(c(=O)c3c2C)CCC4)cc1 |  | inconclusive: 28.2 µM [inhibitor, partial curve] |
| CCOC(=O)Cc1csc(NC(=O)c2ccc(N3CCOCC3)cc2[N+](=O)[O-])n1 |  | inconclusive: 39.8 µM [inhibitor, partial curve] |
| COc1ccc(O)c(/C=N/Nc2nc(C)cc(-c3ccccc3)n2)c1 |  | active: 35.5 µM |
| Cc1ccc(NC(=O)CCc2nnc3ccc(NCc4ccco4)nn23)cc1 |  | inconclusive: 89.1 µM [inhibitor, single point] |
| CCc1nnc(NC(=O)C2Cc3ccccc3CN2S(=O)(=O)c2ccc(C)cc2)s1 (centres undefined) |  | inconclusive: 20 µM [inhibitor, full curve, poor fit] |
| Cc1cc(C)c(C)c(S(=O)(=O)NC2CCN(Cc3ccccc3)CC2)c1C |  | inconclusive: 79.4 µM [inhibitor, single point] |
| O=C1CC(=Nc2ccccc2)NN1c1ccccc1 |  | inconclusive: 100 µM [inhibitor, single point] |
| CN=c1scc(-c2c[nH]c3ccccc23)n1C | inactive: -19.4% |  |
| Cc1ccc(S(=O)(=O)N(C)C)cc1NC(=O)c1cc(-c2ccco2)nc2ccccc12 |  | inconclusive: 22.4 µM [inhibitor, full curve] |
| CCOc1cc(/C=N/N2CCN(Cc3ccccc3)CC2)ccc1O |  | inconclusive: 79.4 µM [inhibitor, partial curve] |
| COc1ccc(C(=O)c2ccc(Cl)c([N+](=O)[O-])c2)cc1 |  | inconclusive: 50.1 µM [inhibitor, partial curve] |
| COc1ccc(C2Nc3ccccc3C(=O)N2CC(C)(C)C)cc1COc1ccc(NC(C)=O)cc1 (centres undefined) |  | active: 56.2 µM |
| COc1cc(C(C[N+](=O)[O-])c2c(-c3ccccc3)cc3ccccn23)cc(OC)c1OC (centres undefined) |  | inconclusive: 44.7 µM [inhibitor, partial curve] |
